Part of at least one peptide drawing is inferred or uncertain, most often the ends. Where a SMILES comes first, the peptide text is derived from it. Bridges are numbered along the chain shown (N, C = ends). [ ]: non-standard residue; d: D form. The star is where a group is joined. Phe(4-Cl) = N[C@@H](Cc1ccc(Cl)cc1)C(=O)O; 2Nal = N[C@@H](Cc1ccc2ccccc2c1)C(=O)O; Agmatine = N=C(N)NCCCCN*; Nle = CCCC[C@H](N)C(=O)O; Orn = NCCC[C@H](N)C(=O)O; Abu = CC[C@H](N)C(=O)O; PhAc = O=C(Cc1ccccc1)*
Tested on: GH release induced by 1 nM hGH-RH(1-29)NH2 in superfused rat pituitary cells
Experiment: Inhibition of hGH-RH(1-29)NH2-induced GH release in superfused rat pituitary system
Format: cell-based
Settings: for Inhibition of GH release (%) 0 min: 0 min response; for Inhibition of GH release (%) 30 min: 30 min response; for Inhibition of GH release (%) 60 min: 60 min response; for Inhibition of GH release (%) 90 min: 90 min response
Experimental: Superfused Rat Pituitary System. The analogues were tested in vitro in a test described earlier (S. Vigh and A. V. Schally, Peptides 5:241-[…], 1984) with modification (Z. Rekasi and A. V. Schally, P. N. A. S. 90:2146-2149, 1993).
Briefly, the cells are preincubated with peptides for 9 minutes (3 mL) at various concentrations. Immediately after the incubation, 1 nM hGH-RH(1-29)NH2 is administered for 3 minutes (1 mL) [0 minute response]. To check the duration of the antagonistic effect of the analogue, 1 nM hGH-RH(1-29)NH2 is applied 30, 60, 90, and 120 minutes later for 3 minutes [30, 60, 90, 120 min responses]. Net integral values of the GH responses are evaluated. GH responses are compared to and expressed as percent of the original GH response induced by 1 nM GH-RH(1-29)NH2. The effect of the new antagonists are compared to that of [Ac-Tyr^1,D-Arg^2 ]hGH-RH(1-29)NH2, the "Standard antagonist".
Growth Hormone Radio-immunoassay. Rat GH levels in aliquots of undiluted and diluted superfusion samples were measured by double-antibody radioimmunoassay using materials supplied by the National Hormone and Pituitary Program, Baltimore, Md. The results of RIA were analyzed with a computer program developed in our institute (V. Csernus and A. V. Schally, Harwood Academic (Greenstein, B. C. ed., London, pp. 71-109, 1991), hereby incorporated by reference. Inter-assay variation was less than 15% and intra-assay variation was less than 10%.

CCCC[C@H](NC(=O)[C@@H](NC(=O)[C@H](CC(=O)O)NC(=O)[C@H](CCC(N)=O)NC(=O)[C@H](CC(C)C)NC(=O)[C@H](CC(C)C)NC(=O)[C@H](CCCCN)NC(=O)[C@H](CCCNC(=N)N)NC(=O)[C@H](C)NC(=O)[C@H](CO)NC(=O)[C@H](CC(C)C)NC(=O)[C@H](CCC(N)=O)NC(=O)[C@H](CC)NC(=O)[C@H](CC(C)C)NC(=O)[C@@H](NC(=O)[C@H](CCCCN)NC(=O)[C@H](CCCNC(=N)N)NC(=O)[C@H](Cc1ccc(O)cc1)NC(=O)[C@H](CO)NC(=O)[C@H](CC(N)=O)NC(=O)[C@@H](NC(=O)[C@H](Cc1ccc(Cl)cc1)NC(=O)[C@@H](NC(=O)[C@H](C)NC(=O)[C@H](CC(=O)O)NC(=O)[C@@H](CCCNC(=N)N)NC(=O)[C@H](Cc1ccc(O)cc1)NC(=O)[C@H](Cc1ccc2ccccc2c1)NC(C)=O)[C@@H](C)CC)[C@@H](C)O)C(C)C)[C@@H](C)CC)C(=O)N[C@@H](CO)C(=O)NCCCCNC(=N)N [Peptide 4, [Ac-Nal^0,D-Arg^2,Phe(pCl)^6,Abu^15,Nle^27]hGH-RH(1-28)Agm] (Ac-[2Nal]Y[dR]DAI[Phe(4-Cl)]TNSYRKVL[Abu]QLSARKLLQDI[Nle]S-Agmatine)
Inhibition of GH release (%) 0 min (3 nM peptide): 28%
Inhibition of GH release (%) 30 min (3 nM peptide): 21.3%
Inhibition of GH release (%) 60 min (3 nM peptide): 15%
Inhibition of GH release (%) 0 min (30 nM peptide): 76.7%
Inhibition of GH release (%) 30 min (30 nM peptide): 53.4%
Inhibition of GH release (%) 60 min (30 nM peptide): 32%

CCCC[C@@H]1NC(=O)[C@H]([C@@H](C)CC)NC(=O)[C@H](NC(=O)[C@H](CCC(N)=O)NC(=O)[C@H](CC(C)C)NC(=O)[C@H](CC(C)C)NC(=O)[C@H](CCCCN)NC(=O)[C@H](CCCNC(=N)N)NC(=O)[C@H](C)NC(=O)[C@H](CO)NC(=O)[C@H](CC(C)C)NC(=O)[C@H](CCC(N)=O)NC(=O)[C@H](C)NC(=O)[C@H](CC(C)C)NC(=O)[C@@H](NC(=O)[C@H](CCCCN)NC(=O)[C@H](CCCNC(=N)N)NC(=O)[C@H](Cc2ccc(O)cc2)NC(=O)[C@H](CO)NC(=O)[C@H](CC)NC(=O)[C@@H](NC(=O)[C@H](Cc2ccc(Cl)cc2)NC(=O)[C@@H](NC(=O)[C@H](C)NC(=O)[C@H](CC(=O)O)NC(=O)[C@@H](CCCNC(=N)N)NC(=O)[C@H](Cc2ccc(O)cc2)NC(=O)Cc2ccccc2)[C@@H](C)CC)[C@@H](C)O)C(C)C)CC(=O)NCCC[C@@H](C(N)=O)NC(=O)[C@H](CO)NC1=O [Peptide 19, cyclo^25,29 [PhAc^0,D-Arg^2,Phe(pCl)^6,Abu^8,Ala^15,D-Asp^25,Nle^27,Orn^29]hGH-RH(1-29)NH2] (PhAc-Y[dR]DAI[Phe(4-Cl)]T[Abu]SYRKVLAQLSARKLLQ[dD]I[Nle]S[Orn]-NH2; lactam 25-29)
Inhibition of GH release (%) 0 min (30 nM peptide): 17.5%
Inhibition of GH release (%) 30 min (30 nM peptide): 0.0%
Inhibition of GH release (%) 60 min (30 nM peptide): 11.2%
Inhibition of GH release (%) 90 min (30 nM peptide): 14.0%

CCCC[C@H](NC(=O)[C@@H](NC(=O)[C@@H]1CCC(=O)NCCCC[C@H](NC(=O)[C@H](CCCNC(=N)N)NC(=O)[C@H](C)NC(=O)[C@H](CO)NC(=O)[C@H](CC(C)C)NC(=O)[C@H](CCC(N)=O)NC(=O)[C@H](C)NC(=O)[C@H](CC(C)C)NC(=O)[C@@H](NC(=O)[C@H]2CCCCNC(=O)CC[C@H](NC(=O)[C@@H](NC(=O)[C@H](Cc3ccc(Cl)cc3)NC(=O)[C@@H](NC(=O)[C@H](C)NC(=O)[C@@H](CC(=O)O)NC(=O)[C@@H](CCCNC(=N)N)NC(=O)[C@H](Cc3ccc(O)cc3)NC(=O)Cc3ccccc3)[C@@H](C)CC)[C@@H](C)O)C(=O)N[C@@H](CO)C(=O)N[C@@H](Cc3ccc(O)cc3)C(=O)N[C@@H](CCCNC(=N)N)C(=O)N2)C(C)C)C(=O)N[C@@H](CC(C)C)C(=O)N[C@@H](CC(C)C)C(=O)N[C@@H](CCC(N)=O)C(=O)N1)[C@@H](C)CC)C(=O)N[C@@H](CO)C(=O)N[C@@H](CCCNC(=N)N)C(N)=O [Peptide 22, cyclo^8,12; 21,25 [PhAc^0, D-Arg^2, D-Asp^3, Phe(pCl)^6, Glu^8,25, D-Lys^12, Ala^15, Nle^27]hGH-RH(1-29)NH2] (PhAc-Y[dR][dD]AI[Phe(4-Cl)]TESYR[dK]VLAQLSARKLLQEI[Nle]SR-NH2; lactam 8-12, 21-25)
Inhibition of GH release (%) 0 min (30 nM peptide): 65.8%
Inhibition of GH release (%) 30 min (30 nM peptide): 37.7%
Inhibition of GH release (%) 60 min (30 nM peptide): 24.9%
Inhibition of GH release (%) 90 min (30 nM peptide): 26.8%

— patent US5942489A, “HGH-RH(1-29)NH2 analogues having antagonistic activity” (The Administrators of the Tulane Educational Fund, priority 1996, dated 1999)
